According to paper PMC1479839 (2006):

Biological target: T1, extracellular domain of the IL-13 receptor α1-chain (UniProt P78552 22-343)
T1 chain: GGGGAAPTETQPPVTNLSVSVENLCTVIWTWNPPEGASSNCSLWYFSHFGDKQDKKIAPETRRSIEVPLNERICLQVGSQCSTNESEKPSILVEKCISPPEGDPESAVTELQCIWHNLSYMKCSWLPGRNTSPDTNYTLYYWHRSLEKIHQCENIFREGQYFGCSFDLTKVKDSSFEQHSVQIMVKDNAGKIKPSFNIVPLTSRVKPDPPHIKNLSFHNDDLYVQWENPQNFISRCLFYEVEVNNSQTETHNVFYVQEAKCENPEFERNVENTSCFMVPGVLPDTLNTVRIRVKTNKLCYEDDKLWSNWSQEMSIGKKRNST
Assay: SPR

B1: human interleukin 13 (wild type) (ligand)
chain: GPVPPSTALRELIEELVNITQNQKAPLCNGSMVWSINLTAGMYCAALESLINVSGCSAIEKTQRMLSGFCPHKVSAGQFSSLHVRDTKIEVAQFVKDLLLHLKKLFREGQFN
Kd: 30 nM
